From patent US11773157B2, “Compositions and methods for treating and preventing Staphylococcus aureus infections” (priority 2014, dated 2023)

Tested on: differentiated HL-60 cells
Experiment: Phagocytosis of pH-rodo-green labeled S. aureus by differentiated HL-60 cells (FACS)
Format: cell-based
Conditions: co-incubation with pH-rodo-green labeled S. aureus; MABp1 negative control; FIG. 6
Experimental: The resulting fluorescence of the HL-60 cells was determined using fluorescence-assisted cell sorting (FACS).
An additional set of experiments was performed to test the ability of additional anti-SpA Abs to promote phagocytosis of SA by differentiated HL-60 cells.

B1: PA7.2-G3: human IgG3 anti-SpA mAb; heavy chain SEQ ID NO: 26, light chain SEQ ID NO: 31 (antibody, listed as Homo sapiens)
heavy: EVQLVESRGGLVQPGGSLRLSCAASGFTFSNYAMSWVRQAPGKGLEWVSTISGSDGGTYYADSVKGRFTISRDNSGNTVYLQMNSLREDDTAVYYCARVGLSAPVTFFDFWGQGTLVTVSSASTKGPSVFPLAPCSRSTSGGTAALGCLVKDYFPEPVTVSWNSGALTSGVHTFPAVLQSSGLYSLSSVVTVPSSSLGTQTYTCNVNHKPSNTKVDKRVELKTPLGDTTHTCPRCPEPKSCDTPPPCPRCPEPKSCDTPPPCPRCPEPKSCDTPPPCPRCPAPELLGGPSVFLFPPKPKDTLMISRTPEVTCVVVDVSHEDPEVQFKWYVDGVEVHNAKTKPREEQYNSTFRVVSVLTVLHQDWLNGKEYKCKVSNKALPAPIEKTISKTKGQPREPQVYTLPPSREEMTKNQVSLTCLVKGFYPSDIAVEWESSGQPENNYNTTPPMLDSDGSFFLYSKLTVDKSRWQQGNIFSCSVMHEALHNRFTQKSLSLSPGK
light: [… about 100 residues …]FSFGQGTDLDLKRTVAAPSVFIFPPSDEQLKSGTASVVCLLNNFYPREAKVQWKVDNALQSGNSQESVTEQDSKDSTYSLSSTLTLSKADYEKHKVYACEVTHQGLSSPVTKSFNRGEC
modifications: PA7.2-G3 Heavy Chain; PA7.2-G3 Light Chain
With B1 the “opsinization and phagocytosis of S. aureus by differentiated HL-60 cells” value was “able to promote opsinization and phagocytosis”.
